According to publication PMC12136788:
The other results are listed elsewhere or left out.

T1: UNK ZnF1-6 (called full-length) (human, UniProt Q9C0B0 30-357)
T1 sequence: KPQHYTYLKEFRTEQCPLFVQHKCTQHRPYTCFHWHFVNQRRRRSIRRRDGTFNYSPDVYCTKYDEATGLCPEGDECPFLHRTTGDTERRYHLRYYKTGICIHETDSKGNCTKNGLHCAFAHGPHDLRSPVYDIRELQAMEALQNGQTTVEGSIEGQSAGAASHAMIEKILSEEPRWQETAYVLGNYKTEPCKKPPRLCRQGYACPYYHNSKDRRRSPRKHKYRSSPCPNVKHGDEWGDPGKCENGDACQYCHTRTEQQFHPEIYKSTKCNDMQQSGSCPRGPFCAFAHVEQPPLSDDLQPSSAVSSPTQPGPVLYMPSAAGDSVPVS

B1: chr6:105099394:105099495:-|3pUTR|ENSG00000112276|msi1|total|mutant (ssRNA)
RNA: GGGAGUUCUACAGUCCGACGAUCUCCGUUGAAUGAAGCUCAUUGAUUGGCCAUGCUGGUCAUGUCUAUUUUGCUUCAUCCACCCGAACCAACUUUGAGUCAGUCUCCUGUUACGUUAAAUGGCUAAGAAAAGUUCCAAAUGAACAACAGAGGAUUGAGCAUCA
B2: ENSG00000172071:stop:overlap|stop_codon|ENSG00000172071|stop_codon|NA|stop_codon (ssRNA)
RNA: GGGAGUUCUACAGUCCGACGAUCCAUCGGGAACAAAACAUUCAAGACAGUCCAACAACUCCCAUAGCCCUUUGCCAAGCAAUUAGCCUUAAGUUGUGCUAGCAACCCUAAUAGGUGAUGCAGAUAAUAGCCUACUUCUUAGAACAACAGAGGAUUGAGCAUCA
B3: chr1:223774945:223775046:+|3pUTR|ENSG00000162909|msi1|total|mutant (ssRNA)
RNA: GGGAGUUCUACAGUCCGACGAUCAAAUACACUUUGUAUCUGGACCUCAAAAUUAUGGGAACAUUUACUUAAACGGAUGAUCACCGCUGAAAAUAAUGAUACUGUCAAUUUGAGACCGCAGAAGUUUCACACAUCAAAGUAAAACAACAGAGGAUUGAGCAUCA
B4: ENSG00000107863:be:win_6451|3pUTR|ENSG00000107863|bound_else_gene|NA|bound_elsewhere_windowed (ssRNA)
RNA: GGGAGUUCUACAGUCCGACGAUCGUAAAAUACGUAACUUAAAUGAACAUAUUAAAUGUGUAUCUUUUCUUCAGAUACCAGAUUUGAUAUAAUGUUGUAACAUAGGUGUGUAGAUAGUGGAUCCUGGAUGGAACUGGCUUCUUUCAACAGAGGAUUGAGCAUCA
B5: chr4:54297753:54297953:+|3pUTR|ENSG00000134853|msi1|FALSE|unique (ssRNA)
RNA: GGGAGUUCUACAGUCCGACGAUCUUUUUAUGAUGACAAUCAAAGCCGGCCUGAGAAACACUAUUUGUGACUUUUUAAACGAUUAGUGAUGUCCUUAAAAUGUGGUCUGCCAAUCUGUACAAAAUGGUCCUAUUUUUGUGAAGACAACAGAGGAUUGAGCAUCA
B6: chr12:57516587:57516808:-|three_prime_utr|ENSG00000175197|control|control|control (ssRNA)
RNA: GGGAGUUCUACAGUCCGACGAUCCCCCCACUUGGGCCACACUACCCACCUUUCCCAGAAGUGGCUACUGACUACCCUCUCACUAGUGCCAAUGAUGUGACCCUCAAUCCCACAUACGCAGGGGGAAGGCUUGGAGUAGACAAACAACAGAGGAUUGAGCAUCA
B7: chr19:18196783:18197469:-|three_prime_utr|ENSG00000105649|control|control|control (ssRNA)
RNA: GGGAGUUCUACAGUCCGACGAUCACUACCCGGGCCUGACCCGGCCCCUACCAGCCACGGGCACAAGACCCCUGCUCCUGACUUAGCCCGUCACCCUUAUUUAUUAUUGUAGCUAUUUAUUUAUUUAUUGAAGAUGUCCCCCAGCAACAGAGGAUUGAGCAUCA
B8: chr8:144773268:144774605:-|CDS|ENSG00000196378|control|control|control (ssRNA)
RNA: GGGAGUUCUACAGUCCGACGAUCCACCAGAGGAUUCACACUGGGGAGAAACCCUACAAGUGUGGGGAGUGUGGGAAGCACUUUAGCGCCUACUCUUCCCUGAUUUAUCACCAGAGAAUCCACACCGGAGAGAAACCCUAUAAACAACAGAGGAUUGAGCAUCA
B9: chr17:61865808:61865921:-|3pUTR|ENSG00000108506|unk|FALSE|unique (ssRNA)
RNA: GGGAGUUCUACAGUCCGACGAUCUUCUAUGAGAAUGAGUUUGUAGCUGUUUCAAAUCAUGAAGUGCAUAGUAUCACAUGUGAUAGAAUAUUUAUAACUUUUUAUUAGAUGCUUAAUGUUCAAUUAAGUAAUUUUGAUGUGAAACAACAGAGGAUUGAGCAUCA
B10: chr12:2800410:2800520:+|CDS|ENSG00000004478|unk|total|mutant (ssRNA)
RNA: GGGAGUUCUACAGUCCGACGAUCAAAUACAAGCAAGCUUUACUACAGUAUAAGAAGAUCGUGUCUUGGCUGGAAUAUGAGUCCCGUUUUUCCAAUGAGGAAGCACAGAAAGCACAGGCCCUUCGACUGGCCUCUCACCUCAACCAACAGAGGAUUGAGCAUCA
B11: chr3:115809552:115809653:-|3pUTR|ENSG00000185565|unk|FALSE|unique (ssRNA)
RNA: GGGAGUUCUACAGUCCGACGAUCCUCCCUCACCUCUCCUCACCUCCACCCCCUCCCCAGAGCACUAGUCAUGCCGCAAAUGCUAGGAAGUGCCAUUUUCAUUUUCUCCACUGUGCGUGUGUGCUCAAGUCUUUCGCUCUCACGCAACAGAGGAUUGAGCAUCA
B12: chr5:128187618:128187661:+|3pUTR|ENSG00000064651|msi1_unk|FALSE|overlapping (ssRNA)
RNA: GGGAGUUCUACAGUCCGACGAUCUCCUUUAUAAGUCAUUAAAAUAAUGUUUCAUCAAAUGGUUAAAUGGACCACUGGUUUCUUAGAGAAAUGUUUUUAGGCUUAAUUCAUUCAAUUGUCAAGUACACUUAGUCUUAAUACACUCAACAGAGGAUUGAGCAUCA
B13: chr6:11183298:11183399:-|3pUTR|ENSG00000111859|msi1|FALSE|unique (ssRNA)
RNA: GGGAGUUCUACAGUCCGACGAUCACAUUUCACAUUUUUAAAACCAAAUGUUCAAUCUGUAUUACUCUUUGCCGUCUUGUAUGUAGAGGCUAUUUUUAAAUCAUUAAAUUUUUAGAUCUCUGUUUUCAUAGCCACUGGGUUUUCCAACAGAGGAUUGAGCAUCA
B14: chr1:62654060:62654161:-|CDS|ENSG00000116641|unk|total|mutant (ssRNA)
RNA: GGGAGUUCUACAGUCCGACGAUCCUUGUUUUCUACCCAUCUCUUAUCCCAACUUUUUACAAAGGUGCCCCUUACCGAAGCAGCCGAUCCAGUGGAUUUGGAAGAUUACCUCAUUACUCAUCCUUUGGCUGUGGAUUCUGGGCCCAACAGAGGAUUGAGCAUCA

The binders below were run against T1, UNK ZnF1-6 (called full-length) (assay: nsRBNS (natural sequence RNA bind-n-seq); RBNS binding buffer (assumed for nsRBNS): 25 mM Tris pH 7.5, 150 mM KCl, 3 mM MgCl2, 0.01% Triton X-100, 500 ug/ml BSA, 20 U/ml SUPERase-In, 4 C; UNK is unkempt and MSI1 is Musashi-1; names of the RNAs are library labels; protein concentration not given here; high values mean tight binding).
With B1 the binding signal was 0.186 enrichment R. B2 gave a binding signal of 1.57 enrichment R. B3 was tested, and the binding signal was 0.325 enrichment R. B4 gave a binding signal of 0.535 enrichment R. Binder B5 has a binding signal of 0.454 enrichment R. B6 gave a binding signal of 0.755 enrichment R. B7 showed a binding signal of 66 enrichment R. B8 was tested, and the binding signal was 0.587 enrichment R. B9 was tested, and the binding signal was 2.51 enrichment R. B10 was tested, and the binding signal was 0.608 enrichment R. B11 showed a binding signal of 2.06 enrichment R. Work on B12 yielded a binding signal of 5.61 enrichment R. With B13 the binding signal was 2.43 enrichment R. Binder B14 has a binding signal of 0.769 enrichment R.
